The campaign covered roughly 310,000 compounds. About 14,000 (4.5%) showed an effect of 50% or more. The effect is printed as a negative number. The list shows a part of the results.
Target: human ether-à-go-go-related gene (hERG) potassium channel (human, UniProt Q12809)
Experiment: primary screen, population patch clamp on CHO cells stably expressing hERG
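Note: peak tail current of the secondary pulse compared with the same well before compound.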

human ether-à-go-go-related gene (hERG) potassium channel, sequence (Q12809 whole entry, looked up): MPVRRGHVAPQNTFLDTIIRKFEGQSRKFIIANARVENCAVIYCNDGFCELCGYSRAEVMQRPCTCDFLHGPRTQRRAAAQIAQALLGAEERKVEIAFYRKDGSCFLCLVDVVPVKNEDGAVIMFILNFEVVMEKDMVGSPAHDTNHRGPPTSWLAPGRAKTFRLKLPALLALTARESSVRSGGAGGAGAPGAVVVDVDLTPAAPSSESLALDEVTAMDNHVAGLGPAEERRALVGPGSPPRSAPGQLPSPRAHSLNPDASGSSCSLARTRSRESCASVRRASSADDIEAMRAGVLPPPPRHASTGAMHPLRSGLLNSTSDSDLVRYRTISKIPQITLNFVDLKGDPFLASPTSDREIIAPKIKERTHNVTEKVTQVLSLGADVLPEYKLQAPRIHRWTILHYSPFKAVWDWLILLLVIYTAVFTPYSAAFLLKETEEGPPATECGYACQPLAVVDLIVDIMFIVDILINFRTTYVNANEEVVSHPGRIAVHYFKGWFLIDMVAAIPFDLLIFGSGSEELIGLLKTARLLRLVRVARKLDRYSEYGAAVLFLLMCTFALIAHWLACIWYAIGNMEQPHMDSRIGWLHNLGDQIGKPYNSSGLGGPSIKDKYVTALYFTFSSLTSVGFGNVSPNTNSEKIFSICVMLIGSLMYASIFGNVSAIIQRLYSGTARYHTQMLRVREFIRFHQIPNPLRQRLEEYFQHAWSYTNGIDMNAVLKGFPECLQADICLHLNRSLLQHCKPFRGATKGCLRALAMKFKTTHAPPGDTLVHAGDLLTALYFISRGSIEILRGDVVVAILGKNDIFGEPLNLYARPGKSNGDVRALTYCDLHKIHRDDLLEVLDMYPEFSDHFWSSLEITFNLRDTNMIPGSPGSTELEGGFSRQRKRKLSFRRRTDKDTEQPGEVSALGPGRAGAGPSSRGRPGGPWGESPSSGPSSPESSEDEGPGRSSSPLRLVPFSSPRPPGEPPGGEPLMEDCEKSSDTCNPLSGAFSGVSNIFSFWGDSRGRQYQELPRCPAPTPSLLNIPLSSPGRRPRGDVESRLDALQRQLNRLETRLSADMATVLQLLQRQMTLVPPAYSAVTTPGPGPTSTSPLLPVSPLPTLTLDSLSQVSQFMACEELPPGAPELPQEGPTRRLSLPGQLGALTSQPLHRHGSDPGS

Structure (SMILES) | hERG current change (%, negative = inhibition) at 10uM
CCC(C(=O)Nc1ccc(C)cc1)c1ccccc1 (stereo not drawn) | 19.1%
[2H]C([2H])(CCOS(N)(=O)=O)c1ccccc1 | 11.1%
c1ccc(C2(Cn3ccc4ccccc43)OCCO2)cc1 | -1.38%
C=CCNC(=S)N/N=C/c1ccc(C)c([N+](=O)[O-])c1 | 12.8%
N#CC1(NC(=O)CSc2nc3ccc([N+](=O)[O-])cc3s2)CCCCC1 | -69.5%
CCCCC1=CC2=C(c3ccco3)C(=O)C(C)(OC(=O)c3ccc(OC)cc3)C(=O)C2=CN1CC(C)C (stereo not drawn) | 6.07%
COCCN(CCOC)C(=O)COC(=O)c1ccc(Cl)c(S(=O)(=O)N(C)c2ccccc2)c1 | -48.4%
Cn1nc(C(=O)NCc2ccccc2)cc1C(=O)NCc1ccccc1 | 9.03%
COc1ccc(NC(=O)CSCC(=O)N2CCN(c3cccc(C(F)(F)F)c3)CC2)cc1 | -32.9%
CCOC(=O)C1CCCN(C(=O)c2ccc([N+](=O)[O-])c(C)c2)C1 (stereo not drawn) | -0.429%
Cc1cc(C(C)(C)C)ccc1OCC(=O)N/N=C\c1c(C)n(C)n(-c2ccccc2)c1=O | -66.3%
CCCSc1ccc([C@H]2N[C@@](C)(C(=O)OC)[C@H]3C(=O)N(C)C(=O)[C@@H]23)cc1OC.O=C(O)C(F)(F)F | 0.0383%
Cc1ccc(S(=O)(=O)N2CCN(C(=O)N(C)C)CC2)cc1 | 28.5%
CCCCCn1c(=O)[nH]c2cc(C(=O)N3CCN(Cc4ccc5c(c4)OCO5)CC3)ccc2c1=O | -4%
COc1cc(NC(=O)[C@H](C)NC(=O)N2CCn3c2nc2ccccc23)cc(OC)c1 | -41.6%
NC(=O)Cn1c2[n+](c3ccccc31)CC(O)CS2.[Br-] (stereo not drawn) | 6.9%
CN(CC(=O)Nc1ccc(F)c(F)c1F)C(=O)c1ccc2c(c1)OCCO2 | 3.18%
COc1cccc(C(=O)NC(=S)Nc2ccc(N(C)C)cc2)c1 | 9.85%
COc1ccc(CNC(=O)CCn2c(=O)oc3ccccc32)cc1 | -5.31%
O=[N+]([O-])c1ccc(N2CCN(C(=S)Nc3cccc(F)c3)CC2)cc1 | -52%
COc1ccc(-c2cc(C(=O)N3CCOCC3)no2)cc1OC | -6.25%

Structure (SMILES) | hERG current change (%, negative = inhibition) at 10uM
CC(C)CC1NC2(C(=O)N(C)c3ccccc32)C2C(=O)N(C(C)C)C(=O)C12 (stereo not drawn) | -5.28%
Cc1ccc([C@@H]2C[C@H]3CN(Cc4cccc(Cl)c4)C(=O)[C@]34CCCN24)o1 | -34.3%
COc1cc(N(C)C)c(NC(C)=O)cc1C(=O)O | 23.6%
O=C1N(c2cccc3ccccc23)C(c2ccccc2)N2CCCN12 (stereo not drawn) | -1.93%
Cc1nc(S(=O)(=O)Cc2ccccc2)nc2c1CCC2 | 13.4%
O=C(NCC(c1cccnc1)N1CCN(c2ccc(F)cc2)CC1)C1CCCCC1 (stereo not drawn) | -45.5%
COc1ccc(OC)c(-c2nnc(-c3ccc(C)o3)o2)c1 | -7.99%
Cc1ccc(C)c(S(=O)(=O)N2CCN(C(=O)Cn3c(C(F)(F)F)nc4ccccc43)CC2)c1 | -1.16%
COc1cccc2cc(-c3ccccc3)oc12 | 14.3%
COc1cccc(N2CCN(C(c3ccccn3)c3nnnn3C(C)(C)C)CC2)c1 (stereo not drawn) | 1.38%
Cc1ccccc1NC(=O)Cn1nc(C(F)(F)F)cc1C1CC1 | 8.48%
CCC(=O)c1cn(CC(=O)Nc2ccc(C)cc2C)c2ccccc12 | 18.9%
O=C(COc1ccccc1)NNC(=O)c1cc2ccccc2o1 | -9.75%
CCc1ccccc1NC(=S)Nc1cc(OC)c(NC(=O)C(C)C)cc1OC | 17.1%
COc1ccc(CN2CCN(S(=O)(=O)c3ccc(NC(C)=O)cc3)CC2)cc1OC.O=C(O)C(=O)O | -23.3%
COCCn1c(=O)c2c(nc3n2CCCN3Cc2ccccc2)n(C)c1=O | -17.2%
Cc1ccc(NC(=O)c2cc3c(CO)cnc(C)c3oc2=Nc2cccc(C(N)=O)c2)cc1 | 11.2%
Cc1ccc(NC(=O)CC2C(=O)N(Cc3ccccc3)C(=S)N2NC(=O)c2ccccc2)c(C)c1 (stereo not drawn) | 13.7%
CCC1CCCCN1Cc1c(O)ccc2c(=O)c(-c3ccccc3)coc12 (stereo not drawn) | -19.9%
COc1ccc(Cl)cc1S(=O)(=O)N(C)CC(=O)N1CCOCC1 | 25.5%
O=C(O)CNC(=O)CC12CC3CC(CC(C3)C1)C2 | 12.6%

Structure (SMILES) | hERG current change (%, negative = inhibition) at 10uM
COC(=O)C[C@H]1c2cc(C(F)(F)F)ccc2S(=O)(=O)N1Cc1ccc(OC)cc1 | -25.3%
O=C(O)/C=C1\NC(=O)c2ccccc21 | 17%
Cn1cccc1Cc1nnc(SCC(=O)NCc2ccc3c(c2)OCO3)n1CCc1ccccc1 | -17.2%
CS(=O)(=O)N1CCC(C(=O)NCCN2CCN(Cc3ccccc3)CC2)CC1 | 20.4%
Cc1ccc(Cl)c(OCC(=O)NCC(c2cccs2)N2CCOCC2)c1 (stereo not drawn) | -12.4%
COc1ccccc1N1CCN(C(=O)C2C3C=CC4(CN(Cc5ccccc5Cl)C(=O)C24)O3)CC1 (stereo not drawn) | -7%
Cc1ccc(-c2nn3nnnc3c3ccccc23)cc1 | 14.3%
CC(C)S(=O)(=O)C1=NSC2=NC(=O)/C(=C\c3ccc(-c4ccccc4)o3)C(=N)N21 | 11.3%
CCOc1ccc(-n2cnnn2)cc1S(=O)(=O)NCCc1ccc(OC)c(OC)c1 | -12.9%
O=C(COC(=O)c1ccccc1OC(F)F)Nc1ccc2[nH]c(=O)[nH]c2c1 | 4.45%
CN1CCN(CC(O)COc2ccccc2)CC1 (stereo not drawn) | -0.905%
CCCn1c(N)c(N(CCOC)C(=O)c2cccc(Cl)c2)c(=O)[nH]c1=O | 42.9%
CCCCC1(Cc2ccc([N+](=O)[O-])cc2)C(=O)N(c2ccccc2)N(c2ccccc2)C1=O | -5.55%
CCCCN(C)C(=O)CS(=O)(=O)Cc1nc(-c2cccc(OC)c2)oc1C | -18.6%
O=c1cc(-c2ccccc2)[nH]n1-c1nc2ccccc2s1 | 14.2%
O=C(NC1CCCCC1)C1CCCN1S(=O)(=O)c1ccc(Cl)cc1 (stereo not drawn) | 3.18%
CC1CN(C(=O)CN2C(=O)NC3(CCCC3)C2=O)C(=Nc2cccc(S(=O)(=O)N(C)C)c2)S1 (stereo not drawn) | -32%
Cc1ccn2c(=O)nc(SCC(=O)NC3CCCC3)nc2c1 | -3.35%
Cc1c(C(=O)NCC2COc3ccccc3O2)oc2ccc(S(=O)(=O)N3CC(C)CC(C)C3)cc12 (stereo not drawn) | 12.4%
Cc1ccc(S(=O)(=O)NCC2CCC(C(=O)NCc3ccc4c(c3)OCO4)CC2)cc1 (stereo not drawn) | -0.473%
Cc1ccc(OCC(=O)O/N=C(\N)Cc2ccc(Cl)cc2)cc1 | 10.9%

Structure (SMILES) | hERG current change (%, negative = inhibition) at 10uM
Cc1cccc2sc(NC(=O)c3ccc(OCC4CCCO4)cc3)nc12 (stereo not drawn) | 9.85%
COc1ccc(OC)c(/C=N/NC(=O)c2cc3c(OC)cc(OC)cc3[nH]2)c1 | 18.4%
COc1ccc(Cl)cc1NS(=O)(=O)c1cccc(C(=O)NCC2(N(C)C)CCCCC2)c1 | -35.5%
O=c1c2ccccc2sc2ccc(NCCCN3CCOCC3)cc12 | -54.2%
CCCOC(=O)Nc1sc2c(c1C(N)=O)CCCC2 | 28.3%
CCOC(=O)/C(N=Nc1c(C)n(C)n(-c2ccccc2)c1=O)=C(\C)O | 0.837%
CCS(=O)(=O)c1ccc2oc(Nc3cc(Cl)ccc3OC)nc2c1 | -0.211%
CCn1c(COc2ccc(=O)n(-c3ccccc3)n2)nnc1SCc1ccccc1C | -65.4%
O=C(COC(=O)CCc1c[nH]c2ccccc12)NC1CCS(=O)(=O)C1 (stereo not drawn) | 8.32%
CCCCC1(C(=O)OCC)CC(CN2CCOCC2)OC1=O (stereo not drawn) | -3%
Cc1ccc(NC(=O)C2CCN(S(=O)(=O)c3ccc4c(c3)OCCO4)CC2)nc1 | -0.232%
CCCOC(=O)c1cccc(NC(=O)c2cccnc2)c1 | -39.7%
COc1ccc(C(=O)N2CC(=O)Nc3ccc(F)cc3C2c2ccccc2)cc1 (stereo not drawn) | -7.66%
CCOC(=O)COc1ccc2c(c1)c(C(=O)OCC)c(C)n2CC | -29.1%
NC(=O)c1ccc[n+](CC(=O)c2ccc(NC(=O)c3ccccc3)cc2)c1.[Br-] | 27.1%
O=C(Nc1ccc2c(c1)OCO2)C(c1ccccc1)N1CCN(C(=O)c2ccco2)CC1 (stereo not drawn) | -33.2%
O=C(C[N+]12CC[N+](CC(=O)c3ccc(F)cc3)(CC1)CC2)c1ccc(F)cc1.[Cl-] | 12.7%
O=C(CSc1nc2cc(Cl)ccc2s1)NC1CCCc2ccccc21 (stereo not drawn) | -2.3%
CCCCNC(=O)c1ccccc1NC(=O)c1ccc2c(c1)OCO2 | 8.79%
[2H]c1c([2H])c([2H])c(-c2nc(N3CCCCCC3)sc2C(=O)c2ccccc2)c([2H])c1[2H] | -2.19%
CCS(=O)(=O)N1CCN(CC(=O)NC2CCCCC2)CC1.Cl | 15.4%
